Measurements taken from PMC9911399, “Two distinct binding modes provide the RNA-binding protein RbFox with extraordinary sequence specificity”.
Substitutions are numbered along the chain they refer to; changes in the protein carry UniProt numbers. This is one part of the list.

T1: RBFOX1 RRM (Homo sapiens, UniProt Q9NWB1 109-208)
T1 sequence: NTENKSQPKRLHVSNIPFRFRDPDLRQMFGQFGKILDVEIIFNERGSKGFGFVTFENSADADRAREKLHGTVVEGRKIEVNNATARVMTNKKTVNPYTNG

B1: GGUACAA (DNA:RNA)
RNA: GGGAGACCGGAAUUCAGAUUGUCCGGUACAAUUAAAUCCCGUCGUAGCCACCA
DNA 1: CAATCTGAATTCCGGTCTCCC
DNA 2: TGGTGGCTACGACGGGATT
B2: AACACCA (DNA:RNA)
RNA: B1 RNA with G25A, G26A, U27C, A30C
DNA 1: CAATCTGAATTCCGGTCTCCC
DNA 2: TGGTGGCTACGACGGGATT
B3: UGUUUAG (DNA:RNA)
RNA: B1 RNA with G25U, A28U, C29U, A31G
DNA 1: CAATCTGAATTCCGGTCTCCC
DNA 2: TGGTGGCTACGACGGGATT
B4: ACUCAAU (DNA:RNA)
RNA: B1 RNA with G25A, G26C, A28C, C29A, A31U
DNA 1: CAATCTGAATTCCGGTCTCCC
DNA 2: TGGTGGCTACGACGGGATT
B5: UGAAAUG (DNA:RNA)
RNA: B1 RNA with G25U, U27A, C29A, A30U, A31G
DNA 1: CAATCTGAATTCCGGTCTCCC
DNA 2: TGGTGGCTACGACGGGATT
B6: AGUUUGG (DNA:RNA)
RNA: B1 RNA with G25A, A28U, C29U, A30G, A31G
DNA 1: CAATCTGAATTCCGGTCTCCC
DNA 2: TGGTGGCTACGACGGGATT
B7: AUUGCAU (DNA:RNA)
RNA: B1 RNA with G25A, G26U, A28G, A31U
DNA 1: CAATCTGAATTCCGGTCTCCC
DNA 2: TGGTGGCTACGACGGGATT
B8: CGAGGAC (DNA:RNA)
RNA: B1 RNA with G25C, U27A, A28G, C29G, A31C
DNA 1: CAATCTGAATTCCGGTCTCCC
DNA 2: TGGTGGCTACGACGGGATT
B9: ACACGUC (DNA:RNA)
RNA: GGGAGACCGGAAUUCAGAUUGUCCACACGUCUUAAAUCCCGUCGUAGCCACCA
DNA 1: CAATCTGAATTCCGGTCTCCC
DNA 2: TGGTGGCTACGACGGGATT
B10: GGCAGAC (DNA:RNA)
RNA: B1 RNA with U27C, C29G, A31C
DNA 1: CAATCTGAATTCCGGTCTCCC
DNA 2: TGGTGGCTACGACGGGATT
B11: CGCGUCG (DNA:RNA)
RNA: B1 RNA with G25C, U27C, A28G, C29U, A30C, A31G
DNA 1: CAATCTGAATTCCGGTCTCCC
DNA 2: TGGTGGCTACGACGGGATT
B12: AAUGCCG (DNA:RNA)
RNA: B1 RNA with G25A, G26A, A28G, A30C, A31G
DNA 1: CAATCTGAATTCCGGTCTCCC
DNA 2: TGGTGGCTACGACGGGATT
B13: CUCGUCA (DNA:RNA)
RNA: B1 RNA with G25C, G26U, U27C, A28G, C29U, A30C
DNA 1: CAATCTGAATTCCGGTCTCCC
DNA 2: TGGTGGCTACGACGGGATT
B14: AGUCAUC (DNA:RNA)
RNA: B9 RNA with C26G, A27U, G29A
DNA 1: CAATCTGAATTCCGGTCTCCC
DNA 2: TGGTGGCTACGACGGGATT
B15: GGGACCU (DNA:RNA)
RNA: B1 RNA with U27G, A30C, A31U
DNA 1: CAATCTGAATTCCGGTCTCCC
DNA 2: TGGTGGCTACGACGGGATT
B16: GCUUGCC (DNA:RNA)
RNA: B9 RNA with A25G, A27U, C28U, U30C
DNA 1: CAATCTGAATTCCGGTCTCCC
DNA 2: TGGTGGCTACGACGGGATT
B17: CAUCGUG (DNA:RNA)
RNA: B9 RNA with A25C, C26A, A27U, C31G
DNA 1: CAATCTGAATTCCGGTCTCCC
DNA 2: TGGTGGCTACGACGGGATT
B18: GCUUAGG (DNA:RNA)
RNA: B1 RNA with G26C, A28U, C29A, A30G, A31G
DNA 1: CAATCTGAATTCCGGTCTCCC
DNA 2: TGGTGGCTACGACGGGATT
B19: CCCAUAU (DNA:RNA)
RNA: B1 RNA with G25C, G26C, U27C, C29U, A31U
DNA 1: CAATCTGAATTCCGGTCTCCC
DNA 2: TGGTGGCTACGACGGGATT
B20: ACCUACG (DNA:RNA)
RNA: B9 RNA with A27C, C28U, G29A, U30C, C31G
DNA 1: CAATCTGAATTCCGGTCTCCC
DNA 2: TGGTGGCTACGACGGGATT
B21: UUAGCGC (DNA:RNA)
RNA: B9 RNA with A25U, C26U, C28G, G29C, U30G
DNA 1: CAATCTGAATTCCGGTCTCCC
DNA 2: TGGTGGCTACGACGGGATT
B22: GCGUGUC (DNA:RNA)
RNA: B9 RNA with A25G, A27G, C28U
DNA 1: CAATCTGAATTCCGGTCTCCC
DNA 2: TGGTGGCTACGACGGGATT
B23: UGUGUCU (DNA:RNA)
RNA: B1 RNA with G25U, A28G, C29U, A30C, A31U
DNA 1: CAATCTGAATTCCGGTCTCCC
DNA 2: TGGTGGCTACGACGGGATT
B24: AUAACUC (DNA:RNA)
RNA: B9 RNA with C26U, C28A, G29C
DNA 1: CAATCTGAATTCCGGTCTCCC
DNA 2: TGGTGGCTACGACGGGATT
B25: CUGUACG (DNA:RNA)
RNA: GGGAGACCGGAAUUCAGAUUGUCCCUGUACGUUAAAUCCCGUCGUAGCCACCA
DNA 1: CAATCTGAATTCCGGTCTCCC
DNA 2: TGGTGGCTACGACGGGATT
B26: UCUUUCC (DNA:RNA)
RNA: B9 RNA with A25U, A27U, C28U, G29U, U30C
DNA 1: CAATCTGAATTCCGGTCTCCC
DNA 2: TGGTGGCTACGACGGGATT
B27: GCUCGUC (DNA:RNA)
RNA: B9 RNA with A25G, A27U
DNA 1: CAATCTGAATTCCGGTCTCCC
DNA 2: TGGTGGCTACGACGGGATT
B28: AUAACCC (DNA:RNA)
RNA: B9 RNA with C26U, C28A, G29C, U30C
DNA 1: CAATCTGAATTCCGGTCTCCC
DNA 2: TGGTGGCTACGACGGGATT
B29: GGGUGGC (DNA:RNA)
RNA: B9 RNA with A25G, C26G, A27G, C28U, U30G
DNA 1: CAATCTGAATTCCGGTCTCCC
DNA 2: TGGTGGCTACGACGGGATT
B30: GGCCUUU (DNA:RNA)
RNA: B9 RNA with A25G, C26G, A27C, G29U, C31U
DNA 1: CAATCTGAATTCCGGTCTCCC
DNA 2: TGGTGGCTACGACGGGATT
B31: AGACUGC (DNA:RNA)
RNA: B9 RNA with C26G, G29U, U30G
DNA 1: CAATCTGAATTCCGGTCTCCC
DNA 2: TGGTGGCTACGACGGGATT

biological target: T1, RBFOX1 RRM; assay: EMSA; HiTS-Eq, 1 nM pool, 10 min; buffer printed only for the single-RNA assays: 10 mM Tris pH 7.5, 150 mM NaCl, 3.4 mM EDTA, 0.001% NP-40, 30 C; details: tags: His6 N-terminal (pET28a); label: 5' 32P
In short: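 These values rest on relative association constants, computed from read-count changes of each RNA species versus the control reaction and normalised to the cognate motif. Reads came from free RNA recovered by 8% native PAGE after purified RbFox RRM (wild type or mutant) at increasing concentrations was equilibrated for 10 min in 50 µL with 1 nM of a 5′-radiolabelled pool with 7 randomized nucleotides and DNA-annealed flanks.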

| Binder | binding signal |
| --- | --- |
| B1 | 0.00136 KA relative to UGCAUGU |
| B2 | 0.000667 KA relative to UGCAUGU |
| B3 | 0.0202 KA relative to UGCAUGU |
| B4 | 0.000275 KA relative to UGCAUGU |
| B5 | 0.0128 KA relative to UGCAUGU |
| B6 | 0.0144 KA relative to UGCAUGU |
| B7 | 0.0144 KA relative to UGCAUGU |
| B8 | 0.00531 KA relative to UGCAUGU |
| B9 | 0.00354 KA relative to UGCAUGU |
| B10 | 0.0184 KA relative to UGCAUGU |
| B11 | 0.0133 KA relative to UGCAUGU |
| B12 | 0.00918 KA relative to UGCAUGU |
| B13 | 0.00671 KA relative to UGCAUGU |
| B14 | 0.00714 KA relative to UGCAUGU |
| B15 | 0.0182 KA relative to UGCAUGU |
| B16 | 0.0307 KA relative to UGCAUGU |

| Binder | binding signal |
| --- | --- |
| B17 | 0.00966 KA relative to UGCAUGU |
| B18 | 0.00977 KA relative to UGCAUGU |
| B19 | 0.00248 KA relative to UGCAUGU |
| B20 | 0.00286 KA relative to UGCAUGU |
| B21 | 0.0148 KA relative to UGCAUGU |
| B22 | 0.0266 KA relative to UGCAUGU |
| B23 | 0.023 KA relative to UGCAUGU |
| B24 | 0.00036 KA relative to UGCAUGU |
| B25 | 0.0105 KA relative to UGCAUGU |
| B26 | 0.0045 KA relative to UGCAUGU |
| B27 | 0.0303 KA relative to UGCAUGU |
| B28 | 0.00143 KA relative to UGCAUGU |
| B29 | 0.0216 KA relative to UGCAUGU |
| B30 | 0.0127 KA relative to UGCAUGU |
| B31 | 0.0128 KA relative to UGCAUGU |
